From PubChem BioAssay AID624255 (Broad Institute, 2012)
Screen size: about 77,000 compounds; about 4,600 (6%) were called active. The shares of active, inactive and inconclusive entries below differ from those in the screen.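 Rule for the calls: active = mean inhibition above about 93%, with at least 55% of replicates each passing it (limit read from the data, passing the limit was not always enough); inconclusive = only one of those two conditions holds; inactive = neither condition holds.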

Experiment: T. cruzi intracellular proliferation inhibitors, primary screen, cell-based, beta-gal Tulahuen parasites, NIH3T3 host, luminescence (AID 624255)
Conditions: T. cruzi beta-gal in NIH3T3, GalScreen luminescence, 90 h; at 8.34 µM; active compounds read high

inhibition, active:
CN(C)c1ccc2c(c1)[C@@H]1C[C@@H](CC(=O)N3CCc4ccccc4C3)O[C@@H](CO)[C@@H]1O2 135%
CCc1csc(N2[C@H](C#N)[C@H](c3ccc(C4=CCCC4)cc3)[C@@H]2CO)n1 102%
CCC(=O)N1CCCCN2[C@@H](CO)[C@@H](c3ccc(-c4cccnc4)cc3)[C@@H]2C1 96.2%
O=C(Nc1ccccc1F)N1CCCCN2[C@@H](CO)[C@H](c3ccc(C#Cc4cccnc4)cc3)[C@@H]2C1 122%
CO[C@@H](CN(C)S(=O)(=O)c1ccc(F)cc1)[C@@H](C)CN(Cc1ccccc1Cl)[C@H](C)CO 107%
C[C@H]1CN([C@@H](C)CO)S(=O)(=O)c2ccc(C#CC(C)(C)O)cc2O[C@@H]1CN(C)Cc1ccc(-c2ccccc2)cc1 118%
C[C@H](CO)N1C[C@H](C)[C@@H](CN(C)Cc2ccc3c(c2)OCO3)Oc2c(NC(=O)Nc3ccc(C(F)(F)F)cc3)cccc2C1=O 104%
COCC(=O)N1CC[C@@H]2[C@H]1c1cc(-c3ccccc3)ccc1N(C)[C@@H]2CO 108%
C[C@H](CO)N1C[C@H](C)[C@@H](CN(C)Cc2cccc(F)c2)Oc2cc(-c3ccccc3)ccc2S1(=O)=O 107%
Cc1cccc(S(=O)(=O)N2C[C@@H]3[C@H](c4ccccc42)[C@H](CO)N3CC2CCCC2)c1 98.4%
C[C@@H]1CN([C@@H](C)CO)S(=O)(=O)c2ccc(C3=CCCCC3)cc2O[C@@H]1CN(C)C(=O)Cc1ccncc1 96.6%
CC(C)CC#Cc1ccc2c(c1)O[C@@H](CN(C)CC1CC1)[C@@H](C)CN([C@H](C)CO)S2(=O)=O 107%
OC[C@@H]1Nc2ccc(C#Cc3ccc(F)cc3)cc2[C@H]2[C@@H]1CCN2Cc1ccc2c(c1)OCO2 142%

inhibition, inconclusive:
C[C@H]1CCCCO[C@H](CN(C)C(=O)C2CCCCC2)[C@@H](C)CN([C@@H](C)CO)C(=O)c2cc(NC(=O)Nc3cccc4ccccc34)ccc2O1 119%
C[C@H](CO)N1C[C@H](C)[C@H](CN(C)C(=O)Nc2ccc3c(c2)OCO3)Oc2ncc(C#Cc3ccc(C(F)(F)F)cc3)cc2C1=O 108%
CNC[C@H]1Oc2cc(C#CCC3CCCC3)ccc2S(=O)(=O)N([C@@H](C)CO)C[C@@H]1C 103%
CC1C=NC(S(=O)(=O)N2CC[C@@H]3[C@H]2c2cc(-c4ccccc4)ccc2N(C)[C@H]3CO)=N1 (stereo partly drawn) 96.6%
C[C@@H]1CN([C@@H](C)CO)C(=O)c2cccc(NC(=O)Nc3ccc(F)cc3)c2O[C@H]1CN(C)Cc1ccc(Oc2ccccc2)cc1 121%
N#C[C@H]1[C@H](c2ccc(C3=CCCC3)cc2)[C@H](CO)N1C(=O)C1CCC1 97.5%
C[C@@H]1CN([C@H](C)CO)S(=O)(=O)c2ccc(C#CC(C)(C)O)cc2O[C@H]1CN(C)Cc1ccncc1 98.6%
C[C@@H]1CN([C@H](C)CO)C(=O)c2cc(C#Cc3ccccc3)cnc2O[C@H]1CN(C)S(=O)(=O)c1ccccc1F 85.1%
C[C@H](CO)N1C[C@H](C)[C@@H](CN(C)C(=O)c2ccc(F)cc2)Oc2cc(C3=CCCCC3)ccc2S1(=O)=O 111%
COCC#Cc1ccc2c(c1)O[C@H](CN(C)CC1CCCC1)[C@@H](C)CN([C@H](C)CO)S2(=O)=O 113%
COc1ccc(NC(=O)Nc2cccc3c2O[C@@H](CN(C)Cc2ccc(Cl)c(Cl)c2)[C@@H](C)CN([C@H](C)CO)C3=O)cc1 102%
C[C@H]1CN([C@@H](C)CO)C(=O)c2cc(C#CCc3ccccc3)cnc2O[C@@H]1CN(C)C(=O)C1CCCCC1 111%
COc1ccc(NC(=O)N(C)C[C@@H]2Oc3ncc(/C=C/c4ccccc4)cc3C(=O)N([C@H](C)CO)C[C@@H]2C)cc1 99.3%
COc1ccc(-c2ccc3c(c2)[C@@H]2[C@@H](CCN2S(=O)(=O)C2=NC(C)C=N2)[C@@H](CO)N3C)cc1 (stereo partly drawn) 95.2%
COc1ccc(NC(=O)Nc2ccc3c(c2)C(=O)N([C@@H](C)CO)C[C@@H](C)[C@@H](CN(C)C(=O)Nc2cccc4ccccc24)OCCCC[C@@H](C)O3)cc1 96.9%
C[C@@H]1CN([C@H](C)CO)C(=O)c2cc(NC(=O)Nc3ccc(C(F)(F)F)cc3)ccc2O[C@@H](C)CCCCO[C@H]1CN(C)C(=O)c1ccccc1 114%
C[C@H]1CCCCO[C@H](CN(C)C(=O)Nc2ccccc2)[C@@H](C)CN([C@@H](C)CO)C(=O)c2cc(NS(=O)(=O)c3ccc(Cl)cc3)ccc2O1 102%
C[C@@H]1CN([C@H](C)CO)C(=O)c2cc(NC(=O)Nc3ccc(C(F)(F)F)cc3)ccc2O[C@@H](C)CCCCO[C@@H]1CN(C)Cc1ccc2c(c1)OCO2 122%
CC(C)CC#Cc1ccc2c(c1)O[C@H](CN(C)C(=O)Cc1ccncc1)[C@@H](C)CN([C@H](C)CO)S2(=O)=O 89.2%
C/C=C/c1ccc([C@H]2[C@@H](CO)N3CCCCN(C(=O)Nc4ccc(OC)cc4)C[C@H]23)cc1 99.2%
C[C@H]1CCCCO[C@H](CN(C)Cc2ccc(C(F)(F)F)cc2)[C@@H](C)CN([C@@H](C)CO)C(=O)c2cc(NS(=O)(=O)c3ccccc3)ccc2O1 97.6%
C[C@@H]1CCCCO[C@H](CN(C)Cc2ccc(C(F)(F)F)cc2)[C@@H](C)CN([C@H](C)CO)C(=O)c2cc(NS(=O)(=O)c3ccccc3)ccc2O1 97.4%
COc1ccc(NC(=O)Nc2ccc3c(c2)C(=O)N([C@H](C)CO)C[C@H](C)[C@@H](CN(C)C(=O)Nc2ccc(C(F)(F)F)cc2)OCCCC[C@H](C)O3)cc1 114%
C[C@@H]1CN([C@@H](C)CO)S(=O)(=O)c2ccc(/C=C/c3ccccc3)cc2O[C@@H]1CN(C)C(=O)NC1CCCC1 98.8%
C[C@@H]1CCCCO[C@H](CN(C)S(=O)(=O)c2cccs2)[C@H](C)CN([C@@H](C)CO)C(=O)c2cc(NC(=O)Nc3ccc(C(F)(F)F)cc3)ccc2O1 95%
Cc1cccc(S(=O)(=O)N2C[C@H](O)COC[C@H]3O[C@H](CC(=O)Nc4ccc(-c5ccccc5)cc4)CC[C@@H]32)c1 95.6%
C[C@@H]1CN([C@@H](C)CO)C(=O)c2cccc(NC(=O)Nc3ccc(C(F)(F)F)cc3)c2O[C@H]1CN(C)S(=O)(=O)c1ccc(Cl)cc1 97.8%
OC[C@@H]1[C@H](c2ccc(C#CC3(O)CCCC3)cc2)[C@@H]2CN(Cc3cncnc3)CCCCN12 96.5%

inhibition, inactive:
O=C(NCC[C@H]1CC[C@@H](NS(=O)(=O)c2cccc(F)c2)[C@H](CO)O1)Nc1cc(F)ccc1F -4.41%
C[C@@H]1CN([C@@H](C)CO)C(=O)c2cc(NC(=O)Cc3cn(C)c4ccccc34)ccc2O[C@H]1CN(C)S(=O)(=O)c1cccs1 54.2%
CC(=O)N1CC[C@H]2[C@@H]1c1cc(-c3ccccc3)ccc1N(C)[C@H]2CO 69.1%
C[C@@H]1CCCCO[C@H](CN(C)S(=O)(=O)c2ccc(Cl)cc2)[C@H](C)CN([C@@H](C)CO)C(=O)c2cc(N(C)C)ccc2O1 86.3%
COCC(=O)N(C)C[C@@H]1Oc2cc(C3=CCCCC3)ccc2S(=O)(=O)N([C@H](C)CO)C[C@H]1C 9.71%
COCc1cn(CC[C@H]2CC[C@H](NC(=O)Nc3ccc(OC)cc3)[C@@H](CO)O2)nn1 -11.9%
O=C(N[C@@H]1CC[C@@H](CCNS(=O)(=O)c2cccc(Cl)c2)O[C@@H]1CO)c1ccccc1 38.5%
O=C(N[C@@H]1CC[C@H](CCNS(=O)(=O)c2ccc(F)cc2)O[C@@H]1CO)c1cnccn1 -28.7%
CNC(=O)C[C@@H]1CC[C@@H]2[C@@H](COc3ccc(NC(=O)c4cc(F)cc(F)c4)cc3C(=O)N2C)O1 -67.3%
CCNC(=O)[C@@H]1[C@@H](CO)[C@@H]2Cn3c(ccc(C4=CCCCC4)c3=O)[C@@H]2N1C(=O)c1cnccn1 82.2%
C[C@H]1CN([C@@H](C)CO)C(=O)c2cc(C3=CCCC3)cnc2O[C@@H]1CN(C)C(=O)C1CCCCC1 54.7%
C[C@H]1CN([C@@H](C)CO)C(=O)c2cc(-c3ccc(F)cc3)cnc2O[C@@H]1CN(C)C(=O)NC1CCCC1 -65.7%
CN1[C@@H]2c3ccc(-c4cccc(F)c4)c(=O)n3C[C@H]1[C@H](CO)[C@H]2C(=O)N1CCCCC1 9.63%
COCC(=O)Nc1ccc2c(c1)C(=O)N(C)[C@@H]1CC[C@H](CC(=O)O)O[C@@H]1CO2 3.97%
CO[C@H]1CN(C)C(=O)c2ccc(NC(=O)C3CCC3)cc2OC[C@H](C)N(Cc2cccnc2)C[C@H]1C 60%
COc1ccccc1C(=O)N1C[C@@H]2[C@H](c3ccccc31)[C@H](CO)N2C(=O)C1CCOCC1 -18.4%
C[C@@H]1CN([C@@H](C)CO)C(=O)c2cc(NC(=O)NC3CCCCC3)ccc2O[C@@H]1CN(C)S(=O)(=O)c1cn(C)cn1 14%
